# In the supplement of paper PMC10441789:
# The other results are listed elsewhere or left out. Antibody binding of pooled human sera (four to six donors per pool; dilution not stated) to peptides of the Trypanosoma cruzi antigen TSSA on microarrays. Quantile-normalised fluorescence in arbitrary units, mean of duplicate arrays; higher = more binding. No active / inactive call. The uninfected pools are read here as the healthy donors of the same country. The strongest signals lie near the top of the scale (about 60,000).
# System: pooled sera of chronic Chagas disease patients, Argentina
# Experiment: antibody binding signal (normalised fluorescence) (arbitrary fluorescence units); higher = stronger serum antibody binding to peptide
# Method: (§1)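 Microarray of 15-residue peptides over residues 30-55 of Trypanosoma cruzi TSSAII, each with 1 to 10 substitutions at naturally variable positions, probed with one serum pool per country.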
row,Sequence,antibody binding signal
1,PSGKDKKTAAGETPS,4370
2,DKKTATGGAPSPSGA,1250
3,TDKKAAAGGTPSQPG,1100
4,GTDNKAATGETPSQS,3880
5,KAATGGTPSQPGASS,439
6,EKKTAAGGAPSPSGA,384
7,KENKAATGEAPSQSG,29800
8,PSGTEKKAATGEAPS,23800
9,NKTATGEAPSPSGAS,6200
10,SGTEKKAATGEAPSQ,21300
11,PSGKDNKAATGEAPS,25100
12,PSGTDNKAAAGGAPS,14100
13,GTDNKTATGGAPSQS,868
14,PSGKEKKPATGETPS,26500
15,TENKAAAGETPSQPG,31500
16,GTENKPATGGTPSQP,46500
17,TDKKAATGGTPSPSG,1400
18,NKTAAGEAPSQSGAS,494
19,TEKKTATGETPSPSG,656
20,GTDNKTATGGTPSQP,395

row,Sequence,antibody binding signal
1,TPPSGKENKAAAGEA,24600
2,GKENKTAAGGAPSQP,928
3,GTEKKAAAGGTPSQS,462
4,KDNKAAAGEAPSPSG,287
5,DKKPAAGEAPSPPGA,832
6,GKDNKTAAGETPSPP,1660
7,PSGTDNKAAAGETPS,18900
8,EKKTAAGGAPSPPGA,354
9,KDNKPATGEAPSQPG,45100
10,SGTDKKAATGETPSQ,2080
11,STPPSGTDNKPAAGG,35200
12,EKKPATGGAPSQPGA,1430
13,TDKKAATGETPSQPG,5210
14,TPPSGKDNKTATGGT,865
15,NKPATGEAPSPSGAS,26200
16,TPPSGTDNKAATGEA,30100
17,TDNKAATGGTPSPSG,475
18,DKKPATGGTPSPSGA,958
19,TPPSGKDKKTAAGET,4370
20,DKKTAAGETPSPSGA,524

# System: pooled sera of chronic Chagas disease patients, Bolivia
# Experiment: as above
# Method: as §1
row,Sequence,antibody binding signal
1,PSGKDKKTAAGETPS,2190
2,DKKTATGGAPSPSGA,217
3,TDKKAAAGGTPSQPG,221
4,GTDNKAATGETPSQS,4980
5,KAATGGTPSQPGASS,252
6,EKKTAAGGAPSPSGA,518
7,KENKAATGEAPSQSG,34000
8,PSGTEKKAATGEAPS,28400
9,NKTATGEAPSPSGAS,34300
10,SGTEKKAATGEAPSQ,34200
11,PSGKDNKAATGEAPS,17600
12,PSGTDNKAAAGGAPS,3430
13,GTDNKTATGGAPSQS,545
14,PSGKEKKPATGETPS,8790
15,TENKAAAGETPSQPG,3620
16,GTENKPATGGTPSQP,4820
17,TDKKAATGGTPSPSG,874
18,NKTAAGEAPSQSGAS,24200
19,TEKKTATGETPSPSG,724
20,GTDNKTATGGTPSQP,1450

row,Sequence,antibody binding signal
1,TPPSGKENKAAAGEA,10300
2,GKENKTAAGGAPSQP,320
3,GTEKKAAAGGTPSQS,240
4,KDNKAAAGEAPSPSG,194
5,DKKPAAGEAPSPPGA,215
6,GKDNKTAAGETPSPP,382
7,PSGTDNKAAAGETPS,12100
8,EKKTAAGGAPSPPGA,679
9,KDNKPATGEAPSQPG,44500
10,SGTDKKAATGETPSQ,3020
11,STPPSGTDNKPAAGG,48000
12,EKKPATGGAPSQPGA,1120
13,TDKKAATGETPSQPG,2680
14,TPPSGKDNKTATGGT,352
15,NKPATGEAPSPSGAS,51000
16,TPPSGTDNKAATGEA,33600
17,TDNKAATGGTPSPSG,982
18,DKKPATGGTPSPSGA,684
19,TPPSGKDKKTAAGET,848
20,DKKTAAGETPSPSGA,226
